The record followed here is article PMC4336329 (PLoS ONE, 2015).

Each structure is given as a SMILES string. Screen size: about 310,000 compounds; about 2,200 (0.71%) showed an effect of 50% or more. Effects have a minus sign here. Some of the results follow.

The assay deals with human ether-à-go-go-related gene (hERG) potassium channel (human, UniProt Q12809). Nature of the assay: primary screen, population patch clamp on CHO cells stably expressing hERG.
Sequence of human ether-à-go-go-related gene (hERG) potassium channel (Q12809 whole entry, looked up): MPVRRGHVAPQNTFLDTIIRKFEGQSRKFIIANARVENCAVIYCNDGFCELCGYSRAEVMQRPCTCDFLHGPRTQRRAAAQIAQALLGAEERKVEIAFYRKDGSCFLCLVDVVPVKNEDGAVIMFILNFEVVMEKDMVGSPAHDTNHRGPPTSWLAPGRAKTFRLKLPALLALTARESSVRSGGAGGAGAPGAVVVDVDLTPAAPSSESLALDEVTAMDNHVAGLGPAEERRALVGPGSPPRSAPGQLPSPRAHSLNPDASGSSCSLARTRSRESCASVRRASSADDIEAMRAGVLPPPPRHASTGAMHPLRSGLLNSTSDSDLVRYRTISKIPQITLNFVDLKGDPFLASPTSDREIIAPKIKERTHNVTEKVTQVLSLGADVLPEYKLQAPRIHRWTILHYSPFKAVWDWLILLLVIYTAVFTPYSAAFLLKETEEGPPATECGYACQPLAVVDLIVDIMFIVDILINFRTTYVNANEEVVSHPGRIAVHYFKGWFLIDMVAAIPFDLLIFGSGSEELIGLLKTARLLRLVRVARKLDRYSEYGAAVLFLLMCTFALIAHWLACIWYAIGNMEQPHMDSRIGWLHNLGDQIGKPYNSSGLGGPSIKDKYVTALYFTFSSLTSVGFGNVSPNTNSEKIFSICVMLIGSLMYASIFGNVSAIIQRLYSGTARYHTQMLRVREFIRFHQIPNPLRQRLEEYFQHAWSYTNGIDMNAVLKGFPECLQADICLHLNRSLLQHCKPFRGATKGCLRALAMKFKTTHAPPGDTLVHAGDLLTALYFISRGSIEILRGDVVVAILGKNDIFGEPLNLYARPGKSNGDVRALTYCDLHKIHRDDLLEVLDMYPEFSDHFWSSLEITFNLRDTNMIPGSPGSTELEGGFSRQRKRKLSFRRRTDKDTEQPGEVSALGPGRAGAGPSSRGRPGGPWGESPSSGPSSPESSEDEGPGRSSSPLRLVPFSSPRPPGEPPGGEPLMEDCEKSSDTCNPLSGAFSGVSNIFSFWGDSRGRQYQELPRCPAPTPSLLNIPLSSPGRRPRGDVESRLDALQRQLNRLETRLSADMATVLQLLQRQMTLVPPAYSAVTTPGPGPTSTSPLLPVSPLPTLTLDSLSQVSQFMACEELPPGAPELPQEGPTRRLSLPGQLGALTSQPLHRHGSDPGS
Consider `Cn1cc(SCC(=O)O)c2ccccc21`, for which the “hERG current change (%, negative = inhibition) at 1uM” value worked out at 10.6%.
For `COc1cccc(CNC(=O)Cn2c(=O)c3cccn3c3ccccc32)c1`, the “hERG current change (%, negative = inhibition) at 1uM” value came out at 13.6%.
Turning to `CCCCN(CC)C(=O)/C=C/c1cccc([N+](=O)[O-])c1`, the “hERG current change (%, negative = inhibition) at 1uM” value is -29.6%.
Then `COc1ccc(NC(=O)COc2ccc(/C=N/O)cc2OC)cc1`, with 7.08%.
As to `CC(=O)NC(CC(=O)Nc1ccc(S(=O)(=O)NC2=NCCCCC2)cc1)c1ccccc1` (centres unmarked), the “hERG current change (%, negative = inhibition) at 1uM” value came to 8.2%.
As for `COc1ccc(NC(=O)CSc2nc3sc(C)c(C)c3c(=O)n2Cc2ccco2)cc1`, the “hERG current change (%, negative = inhibition) at 1uM” value is recorded as 13.3%.
Take `Cc1ccc(C)c(S(=O)(=O)NC(Cc2c[nH]c3ccccc23)C(=O)O)c1` (centres unmarked): the “hERG current change (%, negative = inhibition) at 1uM” value was 17.2%.
`O=c1cnnc(Nc2ccc(Nc3ccccc3)cc2)[nH]1`: the “hERG current change (%, negative = inhibition) at 1uM” value came out at 18.1%.
As to `CC(C)Cn1c(=O)c2c(nc3n2CCS3)n(C)c1=O`, the “hERG current change (%, negative = inhibition) at 1uM” value is listed as 6.94%.
Then `O=C(NC(=S)Nc1ccccc1Cl)c1cncc(Br)c1`, with 12.1%.
As to `Cc1nc(C(=O)NCCCO)cc2c1[nH]c1ccccc12`, the “hERG current change (%, negative = inhibition) at 1uM” value is given as 17.7%.
For the compound `CCOC(=O)c1ccccc1NC(=O)Cn1cnc2c(oc3ccccc32)c1=O`, the “hERG current change (%, negative = inhibition) at 1uM” value came to 18.3%.
Then `CCOC(=O)c1ccc(N(CC(=O)NC2CCCC2)C(=O)CNC(=O)c2ccco2)cc1`, with 3.25%.
Regarding `CC(C(=O)N1c2ccccc2CC1C)N1CCN(S(=O)(=O)c2ccccc2F)CC1` (centres unmarked), the “hERG current change (%, negative = inhibition) at 1uM” value was 0.423%.
As to `O=C1COc2ccc(C(=O)COC(=O)Cc3ccc(Cl)cc3)cc2N1`, the “hERG current change (%, negative = inhibition) at 1uM” value worked out at 6.51%.
`O=C(NCc1ccccc1Cl)C1CCC(=O)N(C2CCCC2)C1` (centres unmarked): the “hERG current change (%, negative = inhibition) at 1uM” value stood at 8.91%.
Then `CCNC(=O)CP(=O)(c1ccccc1)c1ccccc1`, with 7.35%; and `O=C(CCn1c(=O)c2ccccc2n(Cc2cccnc2)c1=O)NCc1ccc2c(c1)OCO2`, with 9.51%; and `COCCCNC(=O)CN1CCN(Cc2ccc(Cl)cc2)C1=O`, with 5.07%.
Turning to `O=C(CSc1nnc(NC(=O)C2CCCCC2)s1)NCc1ccco1`, the “hERG current change (%, negative = inhibition) at 1uM” value is 2.37%.
Then `Cc1ccccc1NC(=O)C1CCCN(C(=O)Nc2ccc(F)cc2)C1` (centres unmarked), with 5.81%.
On to `COc1ccc(NC2=Nc3cccc4cccc2c34)cc1`, for which the “hERG current change (%, negative = inhibition) at 1uM” value is 1.92%.
For `ON1C2CCCCC2N(O)C1c1c(F)c(F)c(F)c(F)c1F` (centres unmarked), the “hERG current change (%, negative = inhibition) at 1uM” value turned out to be 17.7%.
Then `CCn1c(Cc2ccccc2)nnc1SCC(=O)Nc1cc(C)on1`, with 15.8%.
For `O=C(CCNC(=O)c1ccc([N+](=O)[O-])cc1)Nc1ccccc1N1CCOCC1`, the “hERG current change (%, negative = inhibition) at 1uM” value is -4.23%.
In the case of `Cc1oc(-c2cccc(C(F)(F)F)c2)nc1CN1CCOCC1`, the “hERG current change (%, negative = inhibition) at 1uM” value worked out at 9.03%.
Take `COc1cc(NS(=O)(=O)c2ccc(Br)s2)cc(OC)c1`: the “hERG current change (%, negative = inhibition) at 1uM” value came out at 5.29%.
For `Cc1ccc(C)c(OC(C)C(=O)Nc2nccs2)c1` (centres unmarked), the “hERG current change (%, negative = inhibition) at 1uM” value worked out at 11.5%.
Regarding `CN(C)C(=O)c1nnsc1Sc1ccc(Cl)cc1`, the “hERG current change (%, negative = inhibition) at 1uM” value is given as 12.9%.
In the case of `Cc1cc(NC(=O)CCCSc2nc(-c3ccco3)cc(C(F)(F)F)n2)no1`, the “hERG current change (%, negative = inhibition) at 1uM” value is 13.7%.
Then `O=C(Nn1c(-c2ccncc2)nc2ccccc2c1=O)c1ccc([N+](=O)[O-])cc1Cl`, with 7.96%; and `Cc1nn(C)cc1S(=O)(=O)N1CCN(c2ccccc2)CC1`, with 0.0132%; and `CC1=C(C(=O)OCc2ccccc2)C(c2ccc(N3CCOCC3)cc2)NC(=O)N1` (centres unmarked), with 0.721%.
As to `Cc1ccc2oc(=O)c3cnn(CC(=O)N4CCCCCC4)c3c2c1`, the “hERG current change (%, negative = inhibition) at 1uM” value was -1.04%.
Then `COC(=O)C1=C(c2ccc(Cl)c(C(F)(F)F)c2)C[C@@H]2CC[C@H]1N2C(=O)NCC1CC1`, with 13.9%; and `O=c1cc(-c2ccccc2Cl)oc2c(NS(=O)(=O)c3cc(Cl)cc(Cl)c3O)ccc(O)c12`, with 18.4%; and `Cc1ccccc1OCC(=O)NCC(=O)N/N=C/c1ccc(Br)o1`, with 13.1%.
On to `O=C(CSc1ncnc2ccccc12)Nc1cc(S(=O)(=O)N2CCCCC2)ccc1Cl`, for which the “hERG current change (%, negative = inhibition) at 1uM” value came out at 4.42%.
In the case of `COc1ccc(-c2cc3c(=O)n(CC(=O)N4CCCC4)ncn3n2)cc1`, the “hERG current change (%, negative = inhibition) at 1uM” value worked out at 3.93%.
With `Cc1cccc(N2CCN(C(=O)C3CCN(S(=O)(=O)c4c(C)noc4C)CC3)CC2C)c1` (centres unmarked), the “hERG current change (%, negative = inhibition) at 1uM” value is 13.1%.
As for `Oc1ccccc1C1NN=C(c2ccccc2)S1` (centres unmarked), the “hERG current change (%, negative = inhibition) at 1uM” value was 8.06%.
Then `O=C(CCl)Nc1nc(-c2ccco2)c(-c2ccco2)s1`, with 21.1%.
For `COC(=O)c1ccc(NC(=O)c2cc[n+]([O-])cc2)cc1`, the “hERG current change (%, negative = inhibition) at 1uM” value stood at 10.9%.
Then `Cc1cc(C(=O)OCC(=O)NCc2ccc3c(c2)OCO3)c2ccccc2n1`, with 5.2%.
